Source: PubChem BioAssay (Tox21)
Several values for one entry are separate records, joined by “and”; a condition that tells them apart may be missing. Identical values can stand only once. Activity calls are given as the source filed them. Calls follow the shape of the dose curve; as a rule, active = well fitted activation curve with a large enough effect in the signal ratio in the repeat runs (not every such curve was filed as active); inconclusive = weak or mixed curves, or effect the other way; inactive = no such curve, though single readings can be large or run the other way; the % refers to the signal ratio.

Biological target: Glucocorticoid receptor (Homo sapiens) (UniProt P04150)
UniProt P04150, sequence (P04150 whole entry, looked up): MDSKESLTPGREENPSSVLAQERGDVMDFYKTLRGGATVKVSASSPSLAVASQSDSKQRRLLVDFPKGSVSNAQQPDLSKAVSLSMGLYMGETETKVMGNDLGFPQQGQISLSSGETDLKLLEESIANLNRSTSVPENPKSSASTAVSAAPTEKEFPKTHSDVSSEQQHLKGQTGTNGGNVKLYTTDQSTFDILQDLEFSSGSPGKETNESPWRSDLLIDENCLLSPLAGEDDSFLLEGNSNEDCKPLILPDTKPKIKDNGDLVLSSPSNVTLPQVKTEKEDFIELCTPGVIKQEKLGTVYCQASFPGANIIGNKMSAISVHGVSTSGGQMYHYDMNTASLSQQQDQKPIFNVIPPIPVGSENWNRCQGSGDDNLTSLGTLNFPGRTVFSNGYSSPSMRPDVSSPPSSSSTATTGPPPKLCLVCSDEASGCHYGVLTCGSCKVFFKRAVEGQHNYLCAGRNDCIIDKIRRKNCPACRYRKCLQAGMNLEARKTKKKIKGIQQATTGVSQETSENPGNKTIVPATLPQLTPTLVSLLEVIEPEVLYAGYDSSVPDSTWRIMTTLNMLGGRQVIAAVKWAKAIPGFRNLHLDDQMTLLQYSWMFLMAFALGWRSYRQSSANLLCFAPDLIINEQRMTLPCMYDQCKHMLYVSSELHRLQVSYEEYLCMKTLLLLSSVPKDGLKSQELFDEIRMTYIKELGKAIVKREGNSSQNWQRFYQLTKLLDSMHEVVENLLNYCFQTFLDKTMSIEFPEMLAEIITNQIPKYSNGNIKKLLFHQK
Experiment: qHTS assay to identify small molecule agonists of the glucocorticoid receptor (GR) signaling pathway (AID 720691)
Details: GR-bla HeLa, beta-lactamase reporter ratio, 18 h; activation: at 62.4 µM (top of the series) unless noted
In short: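 Compounds in DMSO, alongside positive controls, were added to GR-bla HeLa reporter cells and incubated 18 h at 37 C; GRE-driven beta-lactamase was detected by fluorescence after 2 h with FRET substrate at room temperature.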
% is scaled to controls: 0 for no effect and ±100 for the full control effect; potency is read from the fitted curve at half-maximal effect; tags tell the direction and shape of the fitted curve or compound fluorescence and quenching.

Q: How did the activation turn out when `CCCOc1ccc2nc(NC(=O)OC)[nH]c2c1` was run?
A: The activation was inconclusive: 2.59% [phenotype inactive].

Q: With `CC1(C)O[C@@H]2C[C@H]3[C@@H]4CCC5=CC(=O)C=C[C@]5(C)[C@@]4(F)[C@@H](O)C[C@]3(C)[C@]2(C(=O)CO)O1` as the molecule, how does the Potency read?
A: Its Potency is active: 3 nM [inconclusive] and active: 349 nM [inconclusive] and active: 1.4 nM.

Q: With `Cc1ccc2c(Br)cc(Br)c(O)c2n1` as the molecule, how does the Potency read?
A: The Potency was inconclusive: 21.3 µM [rising, partial curve, poor fit].

Q: `CNCCC(Oc1ccc(C(F)(F)F)cc1)c1ccccc1` (stereo not drawn) was tested. Which Potency did it give?
A: The Potency was “inactive”.

Q: For `C=CC(=O)OCCn1c(=O)n(CCOC(=O)C=C)c(=O)n(CCOC(=O)C=C)c1=O`, which Potency is on record?
A: The Potency was inconclusive: 17.4 µM [cytotoxic, full curve].

Q: With `CCCCCCCC[P+](CCCCCCCC)(CCCCCCCC)CCCCCCCC` as the molecule, how does the Potency read?
A: The Potency was inconclusive: 6.87 µM [cytotoxic, full curve].

Q: With `CN1C(=O)N(c2ccccc2Br)Cc2cnc(Nc3ccc4c(c3)OCC(CO)O4)nc21` (stereo not drawn) as the molecule, how does the Potency read?
A: The Potency was inconclusive: 1.74 µM [cytotoxic, full curve].

Q: How did the activation turn out when `NC(=O)c1cccnc1` was run?
A: The activation was inconclusive: -2.34% [phenotype inactive].
